Results on 43 molecules are retold here after paper PMC4336329 (PLoS ONE, 2015).

Out of some 310,000 compounds screened, about 14,000 (4.5%) showed an effect of 50% or more. The effect is printed as a negative number. This is one part of the list.
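Note: peak tail current of the secondary pulse compared with the same well before compound.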

The target of the assay is human ether-à-go-go-related gene (hERG) potassium channel (human, UniProt Q12809). Kind of assay: primary screen, population patch clamp on CHO cells stably expressing hERG.
Chain of human ether-à-go-go-related gene (hERG) potassium channel (Q12809 whole entry, looked up): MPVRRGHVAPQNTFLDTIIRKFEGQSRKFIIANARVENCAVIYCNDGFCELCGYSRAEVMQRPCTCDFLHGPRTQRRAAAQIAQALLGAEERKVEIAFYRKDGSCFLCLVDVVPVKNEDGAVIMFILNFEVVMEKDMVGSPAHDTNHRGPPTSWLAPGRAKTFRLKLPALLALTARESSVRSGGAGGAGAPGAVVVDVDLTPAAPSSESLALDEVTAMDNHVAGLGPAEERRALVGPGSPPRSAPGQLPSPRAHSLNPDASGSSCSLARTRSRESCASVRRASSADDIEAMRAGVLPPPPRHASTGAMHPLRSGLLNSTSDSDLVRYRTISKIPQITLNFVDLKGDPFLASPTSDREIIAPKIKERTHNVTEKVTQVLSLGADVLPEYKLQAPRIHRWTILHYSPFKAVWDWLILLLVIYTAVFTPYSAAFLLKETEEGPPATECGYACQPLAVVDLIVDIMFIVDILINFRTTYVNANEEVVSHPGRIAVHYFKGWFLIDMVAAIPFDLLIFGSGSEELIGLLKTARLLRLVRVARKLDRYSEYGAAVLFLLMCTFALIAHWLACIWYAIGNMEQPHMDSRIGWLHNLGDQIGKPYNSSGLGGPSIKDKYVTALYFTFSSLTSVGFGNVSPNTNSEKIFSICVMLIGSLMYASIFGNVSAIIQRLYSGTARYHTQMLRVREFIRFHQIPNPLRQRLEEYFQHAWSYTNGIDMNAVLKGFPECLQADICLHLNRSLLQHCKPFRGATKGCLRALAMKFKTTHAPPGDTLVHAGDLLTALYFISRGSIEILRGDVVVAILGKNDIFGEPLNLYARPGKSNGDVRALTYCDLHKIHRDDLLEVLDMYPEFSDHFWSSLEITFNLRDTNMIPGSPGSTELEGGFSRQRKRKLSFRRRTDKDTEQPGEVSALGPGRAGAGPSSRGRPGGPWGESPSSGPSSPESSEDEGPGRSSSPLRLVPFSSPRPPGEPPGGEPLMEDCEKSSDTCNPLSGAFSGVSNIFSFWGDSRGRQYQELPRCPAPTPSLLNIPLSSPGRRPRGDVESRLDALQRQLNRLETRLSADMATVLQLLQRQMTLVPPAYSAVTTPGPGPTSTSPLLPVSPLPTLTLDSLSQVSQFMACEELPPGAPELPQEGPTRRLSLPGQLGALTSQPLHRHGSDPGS
Consider `O=C(COC(=O)CCc1nc2ccccc2c(=O)[nH]1)NC(=O)NC1CCCC1`, for which the “hERG current change (%, negative = inhibition) at 10uM” value was found to be 11.7%.

Take `COc1ccc(F)cc1S(=O)(=O)Nc1ccc2c(c1)OCO2`: the “hERG current change (%, negative = inhibition) at 10uM” value is 6.15%.

`N#C/C(=C/c1ccc(O)cc1)C(=O)NCc1ccc(Cl)cc1`: the “hERG current change (%, negative = inhibition) at 10uM” value was 23.1%.

Consider `COc1cccc(-c2cc(C(=O)Nc3ccc(N(C)C(C)=O)cc3)c3cc(Br)ccc3n2)c1`, for which the “hERG current change (%, negative = inhibition) at 10uM” value was found to be 6.81%.

As to `O=C(NCCN1C(=O)S/C(=C\c2ccccc2F)C1=O)C1CCN(S(=O)(=O)c2cccs2)CC1`, the “hERG current change (%, negative = inhibition) at 10uM” value is listed as -57.2%.

Take `COc1ccc(C(=O)C2CCCN(Cc3ccc4nonc4c3)C2)c(C)c1` (stereo not shown): the “hERG current change (%, negative = inhibition) at 10uM” value is on record as -20.3%.

Regarding `CCc1ccc(-c2nc(CCl)cs2)cc1.Cl`, the “hERG current change (%, negative = inhibition) at 10uM” value is recorded as -2.85%.

As to `Cn1ccnc1SCC(=O)NC1CCCC1`, the “hERG current change (%, negative = inhibition) at 10uM” value was found to be 32%.

As to `CCC(=O)Nc1cccc(-c2nnc(SCC(=O)c3ccccc3)n2C)c1`, the “hERG current change (%, negative = inhibition) at 10uM” value was determined as 5.95%.

Turning to `CC(=O)c1ccc(NC(=O)CSc2nnc(NC(=O)CN3CCOCC3)s2)cc1`, the “hERG current change (%, negative = inhibition) at 10uM” value is on record as -2.24%.

Take `CN1c2ccccc2C(=O)NC1c1ccc([N+](=O)[O-])s1` (stereo not shown): the “hERG current change (%, negative = inhibition) at 10uM” value is reported as -19.5%.

`O=C(CSCc1ccccc1)Nc1ccccc1`: the “hERG current change (%, negative = inhibition) at 10uM” value came to 8.79%.

With `COc1ccc(/C(C)=N\NC(=O)CSc2nnc(C)s2)cc1`, the “hERG current change (%, negative = inhibition) at 10uM” value is listed as -3.66%.

As for `O=C(NC(=S)NCCc1ccccn1)c1ccccc1`, the “hERG current change (%, negative = inhibition) at 10uM” value was determined as 6.04%.

In the case of `COc1ccc(NC(=O)CN2C(=O)C(C)Oc3ccccc32)cc1OC` (stereo not shown), the “hERG current change (%, negative = inhibition) at 10uM” value is given as 13.8%.

Regarding `COc1cc(Cn2c(N)c(C#N)c3nc4ccccc4nc32)cc(OC)c1`, the “hERG current change (%, negative = inhibition) at 10uM” value was found to be 17%.

Regarding `CC12CCC(C(=O)N(NC(=O)c3cc(Cl)ccc3O)C1=O)C2(C)C` (stereo not shown), the “hERG current change (%, negative = inhibition) at 10uM” value was determined as 17.4%.

Take `COc1cc2c(cc1OC)C(C(=O)Nc1ccc3c(c1)OCCO3)C(c1cccnc1)N(C)C2=O` (stereo not shown): the “hERG current change (%, negative = inhibition) at 10uM” value came out at 3.06%.

As to `CSCCC1NC(=O)N(CC(=O)Nc2c(C(C)C)cccc2C(C)C)C1=O` (stereo not shown), the “hERG current change (%, negative = inhibition) at 10uM” value was 8.02%.

With `CC1CCCCN1C(=O)N[C@@H](Cc1ccccc1)C(=O)O` (stereo partly shown), the “hERG current change (%, negative = inhibition) at 10uM” value is 0.607%.

For `COC(=O)c1c(NC(=O)CN(c2ccc(C)c(C)c2)S(C)(=O)=O)sc2c1CCCC2`, the “hERG current change (%, negative = inhibition) at 10uM” value was determined as 2.62%.

As to `COc1ccc(C(=O)C2CCCN(C(=O)c3noc4c3CCCC4)C2)c(C)c1` (stereo not shown), the “hERG current change (%, negative = inhibition) at 10uM” value was -17.2%.

Consider `COc1ccc(C2C=C(c3ccc(Cl)cc3)Nc3nc(NC(C)=O)nn32)cc1` (stereo not shown), for which the “hERG current change (%, negative = inhibition) at 10uM” value is reported as -39.7%.

For the molecule `CCCCCCSc1cc(-c2nc3cc(C)ccn3c2NCCCC)ccc1OC.O=C(O)C(F)(F)F`, the “hERG current change (%, negative = inhibition) at 10uM” value is -7.35%.

On to `COc1ccc(NC(=O)Cn2cccc2)c(OC)c1`, for which the “hERG current change (%, negative = inhibition) at 10uM” value is recorded as -2.18%.

On to `O=C(/C=C/c1cccc([N+](=O)[O-])c1)Nc1ccccc1N1CCOCC1`, for which the “hERG current change (%, negative = inhibition) at 10uM” value is reported as -49.1%.

On to `COc1ccc(N=Cc2c(O)n(-c3ccc(OC)cc3)c(=O)c3ccccc23)cc1`, for which the “hERG current change (%, negative = inhibition) at 10uM” value is 15.2%.

Take `CCOC(=O)C(CC)n1nc(C)n2c(cc3sccc32)c1=O` (stereo not shown): the “hERG current change (%, negative = inhibition) at 10uM” value was -17.2%.

Consider `CC(C)(O)C(=O)NNC(=S)NCc1ccco1`, for which the “hERG current change (%, negative = inhibition) at 10uM” value was -5.53%.

On to `CCOC(=O)CC1=C(C(=O)OCC)C(c2cccnc2)C(C#N)=C(N)O1` (stereo not shown), for which the “hERG current change (%, negative = inhibition) at 10uM” value is on record as 5.53%.

Regarding `Cc1cccc(N2CCN(C(=O)C3CCC(CNS(=O)(=O)c4cccs4)CC3)CC2)c1C` (stereo not shown), the “hERG current change (%, negative = inhibition) at 10uM” value is 1.93%.

With `O=C(c1ccco1)N1CCN(Cc2cc(=O)c(OCc3ccccc3Cl)co2)CC1`, the “hERG current change (%, negative = inhibition) at 10uM” value is -56.2%.

Regarding `C/C(=N\NC(=S)Nc1ccc(C)c(C)c1)c1ccc(N2CCOCC2)cc1`, the “hERG current change (%, negative = inhibition) at 10uM” value was found to be 23.7%.

In the case of `CCNC(=O)/C(C#N)=C/c1c(N2CCN(Cc3ccc4c(c3)OCO4)CC2)nc2c(C)cccn2c1=O`, the “hERG current change (%, negative = inhibition) at 10uM” value is -37.6%.

As for `CC(C)CN(C)C(=O)CCc1nnc(Cc2ccc(-c3ccccc3)cc2)o1`, the “hERG current change (%, negative = inhibition) at 10uM” value is listed as -17.3%.

Regarding `COC(=O)[C@]1(C)N[C@H](c2ccc(-c3ccc(Cl)c(Cl)c3)c(OC)c2)[C@@H]2C(=O)N(C)C(=O)[C@@H]21.O=C(O)C(F)(F)F`, the “hERG current change (%, negative = inhibition) at 10uM” value is given as -7.69%.

As to `CCCCCN(C(=O)CCC(=O)OCCOc1ccccc1)c1c(N)n(CCCC)c(=O)[nH]c1=O`, the “hERG current change (%, negative = inhibition) at 10uM” value is -19%.

Consider `COc1ccc2sc(NC(=O)c3ccco3)nc2c1`, for which the “hERG current change (%, negative = inhibition) at 10uM” value is recorded as -0.256%.

`Cc1ccc(N(CC(=O)NCc2ccco2)C(=O)CCC(=O)Nc2nccs2)cc1C`: the “hERG current change (%, negative = inhibition) at 10uM” value is -7.5%.

With `Cc1ccc(C)c(C(=O)COC(=O)c2ccc(Br)o2)c1`, the “hERG current change (%, negative = inhibition) at 10uM” value amounted to 4.92%.

For the molecule `Cc1csc2c(NCCCN3CCOCC3)ncnc12`, the “hERG current change (%, negative = inhibition) at 10uM” value was determined as 2.69%.

For the molecule `Cc1ccc(N=C2CCCN2Cc2ccccc2)c(C#N)c1`, the “hERG current change (%, negative = inhibition) at 10uM” value was -16.1%.

`O=C(C1CCN(CC2CC=CCC2)CC1)N(CCc1ccccc1)Cc1ccccc1` (stereo not shown): the “hERG current change (%, negative = inhibition) at 10uM” value is -72%.
